The campaign covered roughly 2,000 compounds. About 45 (2%) were called active.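 The calls were made as follows: active = inhibition above the mean of all tested compounds plus 3 SD (cut at about 49% in these data); inactive = the rest.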 The list shows a part of the results.

This experiment concerns the target Perilipin-5 (Homo sapiens) + 1-acylglycerol-3-phosphate O-acyltransferase ABHD5 (Homo sapiens) (UniProt Q00G26+Q8WTS1). The experiment is described as follows: blockers of ABHD5 binding to perilipin-5 – cell lysate, split luciferase complementation, luminescence, NIH validation set, pilot screen (AID 493035).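 Also: 0% = DMSO only wells while the 100% control is not stated.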 As to conditions: split G. princeps luciferase complementation, lysates, 4 h; at 7.9 µM, hits give high values.
UniProt Q00G26, sequence (Q00G26 whole entry, looked up): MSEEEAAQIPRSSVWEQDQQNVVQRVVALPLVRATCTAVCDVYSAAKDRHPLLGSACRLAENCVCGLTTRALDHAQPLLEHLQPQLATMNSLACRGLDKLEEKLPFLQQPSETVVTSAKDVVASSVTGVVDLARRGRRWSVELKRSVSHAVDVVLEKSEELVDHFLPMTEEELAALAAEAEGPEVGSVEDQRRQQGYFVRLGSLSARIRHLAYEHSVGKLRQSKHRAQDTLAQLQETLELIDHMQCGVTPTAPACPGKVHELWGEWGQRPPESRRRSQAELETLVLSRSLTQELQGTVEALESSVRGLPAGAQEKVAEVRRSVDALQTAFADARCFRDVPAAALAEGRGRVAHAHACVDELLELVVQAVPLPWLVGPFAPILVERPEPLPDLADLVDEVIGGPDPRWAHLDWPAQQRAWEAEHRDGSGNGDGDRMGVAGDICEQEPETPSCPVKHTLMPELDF
UniProt Q00G26, sequence (Q8WTS1 whole entry, looked up): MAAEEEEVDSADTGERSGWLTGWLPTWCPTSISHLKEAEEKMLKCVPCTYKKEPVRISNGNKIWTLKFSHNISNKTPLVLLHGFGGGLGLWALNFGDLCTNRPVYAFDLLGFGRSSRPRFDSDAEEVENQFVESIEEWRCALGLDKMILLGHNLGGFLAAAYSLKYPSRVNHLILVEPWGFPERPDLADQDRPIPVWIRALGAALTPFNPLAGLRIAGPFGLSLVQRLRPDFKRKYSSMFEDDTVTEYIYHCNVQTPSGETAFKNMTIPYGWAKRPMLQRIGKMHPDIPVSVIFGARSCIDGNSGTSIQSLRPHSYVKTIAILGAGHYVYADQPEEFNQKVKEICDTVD
As to `C[C@]12CC[C@@H]3c4ccc(O)cc4C(=O)C[C@H]3[C@@H]1CC[C@@H]2O`, the inhibition is inactive: 9.16%.
In the case of `CC(=O)C1=C(O)C(=O)OC1c1ccc(C)cc1` (configuration not stated) it was inactive: -1.46%.
In the case of `COc1ccc(OC)c(C(=O)c2coc3ccc(O)cc23)c1` it was inactive: -4.23%; in that of `Cc1nonc1CN(C)C(=O)c1ccc(OC2CCN(C(=O)c3cccnc3)CC2)cc1`, inactive: 2.15%; in that of `NCCc1ccc(O)c(O)c1`, inactive: -3.33%.
The result for `CC(=O)c1cn(C)c(=O)[nH]c1=O` reads inactive: -6.98%.
In the case of `CC1=CC2(O)OCCN(CCO)C2=CC1=O` (configuration not stated), the inhibition was inactive: -6.75%.
In the case of `COc1cccc(N2CC34C=CC(O3)C(C(=O)O)C4C2=O)c1` (configuration not stated) it was inactive: -11.6%; in that of `C[C@H](CS)C(=O)N1CCC[C@H]1C(=O)O`, inactive: 0.6%; in that of `CCCCc1oc2ccccc2c1C(=O)c1cc(I)c(OCCN(CC)CC)c(I)c1`, inactive: -3.91%.
Regarding `O=C(O)c1cccnc1`, the inhibition was inactive: -4.22%.
In the case of `Cc1cccc(N(C)C(=S)Oc2ccc3ccccc3c2)c1` it was inactive: -7.39%.
The result for `COc1ccc(C(=O)Nc2ccccc2C(=O)NC(Cc2c[nH]c3ccccc23)C(=O)O)cc1` (configuration not stated) reads inactive: 1.79%; that for `O=C(O)c1cc2cc(F)ccc2[nH]1`, inactive: 3.04%.
The result for `NNC(=O)c1ccncc1` reads inactive: 1.56%; that for `COc1cc(NC(=S)NC(=O)c2cccs2)ccc1NC(=O)C(C)C`, inactive: 2.99%; that for `CC12CCC(C(=O)N3CCCCC3)([C@H](Br)C1=O)C2(C)C` (some centres not stated), inactive: -4.77%.
On to `COc1ccccc1OS(=O)(=O)c1ccc(NC(C)=O)cc1`, for which the inhibition was inactive: -4.94%.
The result for `COc1ccc(C2C3C(C)=NN=C3CC(C)(O)C2C(C)=O)cc1` (configuration not stated) reads inactive: -1.5%; that for `COc1cccc(OCc2nnc(-c3cccs3)o2)c1`, inactive: 0.28%; that for `CC12CCC(C(=O)NCc3ccc4c(c3)OCO4)(CC1=O)C2(C)C` (configuration not stated), inactive: -3.68%.
Consider `CC(=O)Nc1ccc(CN2CCN(C3CCCCC3)C(CCO)C2)cc1` (configuration not stated), for which the inhibition was inactive: 0.12%.
In the case of `CC1(C)O[C@@H]2C[C@H]3[C@@H]4C[C@H](F)C5=CC(=O)CC[C@]5(C)[C@H]4[C@@H](O)C[C@]3(C)[C@]2(C(=O)CO)O1` it was inactive: -12.1%; in that of `COCCCN1C(=O)/C(=C\c2cccs2)C(C(=O)OC)=C1C`, inactive: 0.91%.
In the case of `CN1C(=O)NC(c2ccc(O)cc2)C2=C1CN(c1cccc3ccccc13)C2=O` (configuration not stated) it was inactive: -15.2%; in that of `Cc1ccccc1N1C(N)=NC(N)=NC1(C)C`, inactive: -6.03%; in that of `Cc1nc2c(c3c1[nH]c1ccccc13)C(=O)CC(C)(C)C2`, inactive: -10.6%.
For the molecule `CN(C)c1cc(NC(=O)CN2CCOCC2)c2ccccc2n1`, the inhibition was inactive: -7.9%.
The result for `CC(C)c1cc(=O)oc2c3c4c(cc12)CCCN4CCC3` reads inactive: 2.85%.
The result for `CSCC[C@H](NC(=O)OC(C)(C)C)C(=O)N1CCC(C(=O)N[C@@H](C)C(=O)O)CC1` reads inactive: -0.91%; that for `COc1cc2c(cc1O)CCN(C(=O)c1ccco1)C2C` (configuration not stated), inactive: 1.59%.
In the case of `COc1ccc(/C=C2\CC/C(=C\c3ccc(OC)c(OC)c3)C2=O)cc1OC` it was active: 72.8%.
Take `CCC(C)NCCOc1ccccc1C` (configuration not stated): the inhibition was inactive: -2.83%.
On to `COc1ccc(NC(=O)C2OC3OC(C)(C)OC3C3OC(C)(C)OC23)cc1` (configuration not stated), for which the inhibition is inactive: 3.54%.
In the case of `CC(=O)Oc1ccc(C(=O)O)cc1OC(C)=O` it was inactive: 4.2%; in that of `CCOC(=O)C1=C(C)N[C@@]2(O)c3ccccc3C(=O)[C@@]12O`, inactive: 10.3%.
In the case of `O=c1c2ccccc2nc2n1CCCN2`, the inhibition was inactive: -0.84%.
In the case of `Cn1cc(CN2CCC(C(=O)N3CCCCC3)CC2)c(-c2ccccc2F)n1` it was inactive: -1.57%; in that of `CCOc1ccc(CC2CCC(=O)NC2=O)cc1` (configuration not stated), inactive: 0.69%; in that of `O=C(COc1cc(O)c2c(=O)c3ccccc3oc2c1)OCc1ccccc1`, inactive: 10%.
The result for `Cc1ccc(C2=NOC(=O)/C2=C\C=C\c2ccccc2)cc1` reads active: 94.4%; that for `CC(C)(C)OC(=O)COc1cc(OCC(=O)OC(C)(C)C)c2c(=O)cc(-c3ccccc3)oc2c1`, inactive: 27.6%; that for `CC(C)=CCCC1=CCC2C(=O)NNC(=O)C2C1` (configuration not stated), inactive: 7.34%.
Turning to `COc1ccc(C(=O)Nc2nc3ccccc3c(=O)[nH]2)cc1`, the inhibition was inactive: 0.27%.
The result for `CC1(C)c2ccccc2N2CC(=O)N(CC(N)=O)C21C` (configuration not stated) reads inactive: 4.9%; that for `COCC(C)NC(=O)c1ccc(CN2CCc3ccccc3C2)cc1` (configuration not stated), inactive: -10.8%; that for `CC(C)C(CCN1C(=O)CCC1=O)C1CCOC(C)(C)C1` (configuration not stated), inactive: 2.17%.
In the case of `C[C@@H]1CCC[C@H](C)N1NC(=O)c1ccc(Cl)c(S(N)(=O)=O)c1` it was inactive: -10%; in that of `Cc1ccc2[nH]c3c(=O)n(CCCN4CCN(C)CC4)cnc3c2c1`, inactive: -5.12%; in that of `Cc1ccc2c(c1)c1c3n2CCCN(Cc2ccccc2)C3CCC1` (configuration not stated), inactive: -6.95%.
Turning to `CC(C)[C@H](NC(=O)[C@@H]1CSCN1C(=O)OC(C)(C)C)C(=O)NCC1CCC(C(=O)O)CC1` (some centres not stated), the inhibition was inactive: -18.6%.
The result for `COc1ccc(C(=O)[C@H]2[C@H]3C(=O)N(c4ccccc4)C(=O)[C@H]3C3C=CC=NN32)cc1` (some centres not stated) reads inactive: 8.24%; that for `CCc1c(C)c2ccc(OCC(=O)OC(C)C)c(C)c2oc1=O`, inactive: -3.95%; that for `COc1cc(/C=C/C(=O)N2CCCC2)cc(OC)c1OC`, inactive: 0.09%.
For `CC(=O)C1=C(O)C(=O)N(Cc2cccnc2)C1c1ccc(C(C)C)cc1` (configuration not stated), the inhibition was inactive: 13.5%.
In the case of `COc1cc2cc(C)nc(Cc3cccc4ccccc34)c2cc1OC` it was inactive: 11.8%; in that of `CCN(CC)CCNC(=O)c1ccc(N)cc1`, inactive: -1.63%; in that of `OC[C@@H](O)[C@@H](O[C@H]1O[C@H](CO)[C@@H](O)[C@H](O)[C@H]1O)[C@H](O)[C@@H](O)CO`, inactive: -8.59%.
The result for `C[N+](C)(C)CCCC(=O)c1ccc2c(c1)OCO2` reads inactive: 11.7%; that for `O=C(CCCN1C(=O)/C(=C\c2cccc(Br)c2)SC1=S)Nc1cccnc1`, inactive: 28.1%; that for `COC(=O)c1ccccc1OCCOCCOc1cccc2ccc(C)nc12`, inactive: -6.99%.
The result for `COC(=O)c1ccc(CC(=O)c2ccc(O)cc2O)o1` reads inactive: 25.6%.
For `CO[C@H]1C=CO[C@@]2(C)Oc3c(C)c(O)c4c(O)c(c(C=NN5CCN(C)CC5)c(O)c4c3C2=O)NC(=O)C(C)=CC=C[C@H](C)[C@H](O)[C@@H](C)[C@@H](O)[C@@H](C)[C@H](OC(C)=O)[C@@H]1C`, the inhibition was inactive: 16%.
In the case of `CC(=O)Nc1nnc(S(N)(=O)=O)s1` it was inactive: 5.36%; in that of `CC(C)Oc1ccc2c(=O)c(-c3ccccc3)coc2c1`, inactive: 4.3%.
On to `COc1cc2[nH]c3c(=O)n(CCN4CCOCC4)cnc3c2cc1OC`, for which the inhibition was inactive: -5.21%.
The result for `CC(C)N(C(=O)Cc1ccccc1[N+](=O)[O-])C(C)C` reads inactive: -3.66%; that for `Cc1ccc(C(=O)Nc2ccc(O)cc2C(=O)O)cc1C`, inactive: -10.3%; that for `COc1ccc(C2OC(=O)Cc3cc(OC)c(OC)cc32)cc1` (configuration not stated), inactive: -0.18%.
In the case of `CC(/C=C1\SC(=O)N(CCCC(=O)O)C1=O)=C\c1ccccc1` it was inactive: 14.2%; in that of `CCc1cc(/C(Cc2ccccn2)=N\O)c(O)cc1O`, inactive: -2.91%.
As to `CCc1cc(-c2[nH]ncc2-c2ccc3c(c2)OCO3)c(O)cc1O`, the inhibition was inactive: -2.89%.
As to `O=C(O)c1ccc(N2C(=O)/C(=C\c3ccccc3)N=C2c2ccccc2)cc1`, the inhibition was inactive: 5.77%.
For the molecule `COc1ccc(CCNC(=O)CC(c2ccccc2)c2cccc(C)c2O)cc1OC` (configuration not stated), the inhibition was inactive: -2.01%.
Consider `COc1ccc(/C=C2\CCc3ccccc3C2=O)c(OC)c1OC`, for which the inhibition was inactive: -7.62%.
As to `CCOC(=O)C1=C(N)Oc2c(c(=O)[nH]c3ccccc23)C1c1ccccc1` (configuration not stated), the inhibition was inactive: -12.7%.
The result for `CC1(C)O[C@@H]2C[C@H]3[C@@H]4C[C@H](F)C5=CC(=O)C=C[C@]5(C)[C@@]4(F)[C@@H](O)C[C@]3(C)[C@]2(C(=O)CO)O1` reads inactive: -1.8%.
On to `O=C(c1ccc(Cl)cc1)C1CCCN(C(=O)/C=C/c2ccccn2)C1` (configuration not stated), for which the inhibition was inactive: 8.56%.
The result for `FC(F)(F)c1ccc(-c2noc(CN3CCCN(C4CCCCC4)CC3)n2)cc1` reads inactive: -2.21%; that for `COc1cc(CNCCc2c[nH]c3ccccc23)cc(Cl)c1OCC(N)=O`, inactive: 1.42%.
In the case of `COc1ccc(Cl)cc1C(=O)NCCc1ccc(S(=O)(=O)NC(=O)NC2CCCCC2)cc1` it was inactive: 2.7%; in that of `CC(=O)OCC(=O)C1=CCC2C3CCC4=CC(=O)C=CC4(C)C3(F)C(OC(C)=O)CC12C` (configuration not stated), inactive: -5.43%; in that of `CC#C[C@]1(O)CC[C@H]2[C@@H]3CCC4=CC(=O)CCC4=C3[C@@H](c3ccc(N(C)C)cc3)C[C@@]21C`, inactive: 12.6%.
Take `COC(=O)c1cc(COc2ccc3ccc(=O)oc3c2)c(C)o1`: the inhibition is inactive: -8.87%.
The result for `CCN(CCCCOC(=O)c1ccc(OC)c(OC)c1)C(C)Cc1ccc(OC)cc1` (configuration not stated) reads inactive: -5.96%.
`Cc1cc(C(C)(C)C)cc(C)c1CC1=NCCN1`: the inhibition is inactive: -1.08%.
The result for `C[C@@H]1C[C@H]2[C@@H]3CCC4=CC(=O)C=C[C@]4(C)[C@@]3(F)[C@@H](O)C[C@]2(C)[C@H]1C(=O)CO` reads inactive: -6.69%.
In the case of `COc1cc2nc(N3CCN(C(=O)C4COc5ccccc5O4)CC3)nc(N)c2cc1OC` (configuration not stated) it was inactive: -2.13%; in that of `COc1cc(OC)cc(C(=O)N[C@@H](CCSC)c2nc3ccccc3[nH]2)c1`, inactive: -1.41%.
In the case of `Cc1ccc(C(=O)COC(=O)c2cnccn2)cc1[N+](=O)[O-]` it was inactive: 0.17%; in that of `NC12CC3CC(C1)CC(O)(C3)C2`, inactive: -9.99%.
With `Cc1[nH]c2ccccc2c1C(=O)CN1CCCC1`, the inhibition is inactive: 2.6%.

For orientation: inhibition means the drop in the measured response relative to a control, in per cent.

Values taken from PubChem BioAssay AID493035 (The Scripps Research Institute Molecular Screening Center, 2011).
